The values below come from ChEMBL document CHEMBL4888484, “Replenishing the malaria drug discovery pipeline: Screening and hit evaluation of the MMV Hit Generation Library 1 (HGL1) against asexual blood stage Plasmodium falciparum ,using a nano luciferase reporter read-out” (2022).

The campaign covered roughly 150,000 compounds. About 540 (0.36%) showed an effect of 50% or more. The list shows a part of the results.

A word on the % Inhibition: it is the relative decrease from the control value, in per cent.

This experiment has as its system Plasmodium falciparum. Description: Primary screen in NF54 nanoGlo assay, in single point, at 2uM, 72h; a lower Z score goes with more inhibition. The class given is functional, Erythrocyte. The conditions noted are these: timepoint 72 hour.

For the molecule `Cc1cc(CN2CCCO[C@@H](Cn3cccn3)C2)on1`, the “% Inhibition” value was 8% and the Z score is reported as -1.09.

`O=C1NC[C@H]2O[C@H](CCOc3ccccc3C(=O)N3CCN(C4CCOCC4)C[C@@H]13)CC[C@@H]2O`: the “% Inhibition” value is listed as -1% and the Z score came out at 0.09.

With `COc1ccc([C@@H]2CC(c3cccc(C)c3)=NN2C(=O)CN2CCN(c3ccccc3F)CC2)cc1`, the “% Inhibition” value is given as -10% and the Z score was found to be 1.24.

For `CC1CC(C)CC(S(=O)(=O)NCc2cn(C3CCC3)nn2)C1` (stereo not drawn), the “% Inhibition” value is listed as -2% and the Z score is reported as 0.38.

In the case of `COc1ncnc(OC)c1NC(=O)c1ccc(F)cc1`, the “% Inhibition” value is listed as 25% and the Z score is given as -2.84.

Turning to `CC(O)C1CN(C(=O)N[C@@H]2C[C@H]2c2ccc(Cl)cc2)CCO1` (stereo partly drawn), the “% Inhibition” value is given as -6% and the Z score is reported as 1.19.

As to `Cc1cc(CNc2nc3c(s2)c(C)nn3C)ccn1`, the “% Inhibition” value was -6% and the Z score was found to be 1.18.

As for `CCC1C(=O)NCCN1C[C@@H]1CCO[C@H]1c1ccnn1C` (stereo partly drawn), the “% Inhibition” value is 0% and the Z score is given as 0.04.

With `Cc1nccc(NC[C@@H]2CC[C@H](C)N2C)n1`, the “% Inhibition” value is on record as -16% and the Z score came out at 1.91.

For `COc1cccc(-c2c[nH]c(C)n2)c1C(=O)N(C(C)C)C(C)C`, the “% Inhibition” value is -11% and the Z score was determined as 1.42.

As to `Nc1cccnc1N1CCc2ccccc21`, for the setting “2 µM”, the “% Inhibition” value was found to be 7% and the Z score is recorded as -1.12.

For the molecule `Cc1cc(CS(=O)(=O)CC(=O)Nc2ccc(F)cc2F)on1`, the “% Inhibition” value is recorded as -9% and the Z score worked out at 0.96.

In the case of `O=C([C@@H]1Cc2cc(Cl)ccc2O1)N1CCC(Cc2ccccc2)CC1`, the “% Inhibition” value is -4% and the Z score stood at 0.76.

In the case of `Cn1nncc1CNCc1ccc(OCCN2CCOCC2)c(Cl)c1`, the “% Inhibition” value is given as -6% and the Z score worked out at 0.68.

On to `COCCNC(=O)C(=O)NCC[C@H](O)c1ccccc1`, for which the “% Inhibition” value is given as -5% and the Z score is recorded as 0.77.

In the case of `O=C(Nc1nc(-c2ccccc2)cs1)c1cc(F)c(N2CCCC2)c(F)c1F`, the “% Inhibition” value was 8% and the Z score was -0.91.

Regarding `O=C(Cc1ccc(O)c(F)c1)NC1Cc2ccccc2C1`, the “% Inhibition” value was determined as 22% and the Z score is given as -2.76.

As for `CCc1ccc(NC(=O)[C@H](C)N2CCC(NS(=O)(=O)c3cccs3)CC2)cc1`, the “% Inhibition” value worked out at 76% and the Z score was -7.11.

With `CCc1nsc(NCc2cnn3c2CCCC3)n1`, the “% Inhibition” value was 0% and the Z score is on record as -0.05.

In the case of `COCc1cccc(C(=O)NC2C3CCCOC3C2(C)C)c1` (stereo not drawn), the “% Inhibition” value turned out to be 4% and the Z score was -0.56.

As for `CC(C)c1ccsc1C(=O)NCCc1csc(N2CCCC2)n1`, the “% Inhibition” value is on record as -8% and the Z score is given as 1.12.

Take `COc1ccc(OCc2nc(C(=O)N3CC(n4cccn4)C3)co2)cc1`: the “% Inhibition” value is listed as 16% and the Z score is recorded as -2.16.

Take `CC(C)N1CCN(C(=O)CCN2Cc3ncccc3C2=O)CC1`: the “% Inhibition” value was found to be 2% and the Z score is recorded as -0.28.

Regarding `CCCCNC(=O)N1CCC[C@@]2(CCC(=O)N(Cc3cccnc3)C2)C1`, the “% Inhibition” value was -12% and the Z score was 1.59.

For the molecule `Cc1cnccc1NCCNCc1cccc(O)c1Cl`, the “% Inhibition” value is recorded as 88% and the Z score is -13.09.

With `COc1ccccc1CCC(=O)N1C[C@@H]2C[C@H](NC(=O)c3ccccc3)[C@H]1C2`, the “% Inhibition” value is recorded as -8% and the Z score is 1.24.

In the case of `COc1cccc(-c2nc3ccc(C(=O)NC[C@H]4CCCCO4)cc3o2)c1`, the “% Inhibition” value was -8% and the Z score is 1.11.

As to `CC[C@@H](Cc1ccc(C(F)(F)F)cc1)C(=O)N[C@H]1CC[C@H](O)CC1`, the “% Inhibition” value is -13% and the Z score turned out to be 1.42.

Take `O=C(NCc1nccnc1-c1ccoc1)c1ccccn1`: the “% Inhibition” value is on record as -17% and the Z score is recorded as 3.32.

For `CCN(CC)CCCn1c(-c2ccc(OC)cc2)cn2c3ccccc3nc12`, the “% Inhibition” value was determined as 7% and the Z score is listed as -1.29.

Consider `c1ccc(-n2ncc(CN3CCOc4ccccc43)n2)cc1`, for which the “% Inhibition” value is recorded as -12% and the Z score came to 1.69.

Consider `O=C(COc1ccc(-c2nc3ccccc3s2)cc1)NCc1ccco1`, for which the “% Inhibition” value was -4% and the Z score is listed as 0.64.

Take `COc1ccccc1/N=C(/NC(=O)c1cccc(C)c1)N1CCN(c2cc(C)ccc2C)CC1`: the “% Inhibition” value turned out to be 2% and the Z score is -0.31.

For `COc1cn(-c2cccc(C(F)(F)F)c2)nc1C(=O)N[C@H](c1ccccc1F)c1nccn1C`, the “% Inhibition” value came out at 1% and the Z score is listed as -0.23.

In the case of `CN(Cc1cccnc1)c1ccc(S(=O)(=O)C(F)F)cc1`, the “% Inhibition” value came to 40% and the Z score is -5.18.

In the case of `COc1ccc(Cn2nnc3c(C)nn4c(-c5ccc(OC)cc5)nnc4c32)cc1`, the “% Inhibition” value is recorded as -10% and the Z score came to 1.84.

With `CC#CCn1cc(CNC(=O)OC(C)(C)C)cn1`, the “% Inhibition” value is on record as -8% and the Z score is recorded as 0.98.

Take `COc1ccc(NC(N)=NC[C@H]2CCCO2)cc1`: the “% Inhibition” value is reported as -3% and the Z score stood at 0.36.

`Cc1nc(NC(=O)[C@H]2CC(=O)N(c3n[nH]c4cc(Br)ccc34)C2)sc1C`: the “% Inhibition” value is on record as 2% and the Z score was -0.26.

Consider `O=C1N[C@H](CO)C(=O)N[C@H]1COCc1ccccc1`, for which the “% Inhibition” value is -6% and the Z score turned out to be 1.05.

For `O=C(Nc1nnc(-c2cccc(Br)c2)s1)[C@@H]1CCCN1C(=O)c1ccc2ccccc2c1`, the “% Inhibition” value is listed as -18% and the Z score worked out at 1.76.

Consider `NC(=O)C(Cc1ccccc1)NC(=O)C1CC1c1c(F)cccc1F` (stereo not drawn), for which the “% Inhibition” value worked out at 5% and the Z score is on record as -0.61.

As to `Cc1nn(C(C)C)c2nc(C3CC3)cc(C(=O)N(C)Cc3c(Br)cnn3C)c12`, the “% Inhibition” value is on record as 5% and the Z score is -0.8.

For the molecule `CC(C)(C)C(=O)N1CCC(CS(=O)(=O)c2ccccc2)CC1`, the “% Inhibition” value worked out at 0% and the Z score is on record as -0.05.

For the molecule `O=C(C[C@H](c1ccc(O)cc1)C1CC1)Nc1cnoc1`, the “% Inhibition” value is recorded as 2% and the Z score is -0.21.

For the molecule `C[C@H]1CC(=O)N(CCOc2ccccc2Br)C1=O`, the “% Inhibition” value is 0% and the Z score turned out to be 0.

For `COc1ccc(-c2nc(CC(C)C)n[nH]2)c(OC)n1`, the “% Inhibition” value amounted to 5% and the Z score was -0.63.

As for `CCOc1ccc(N2C[C@@H](C(=O)Nc3ccccc3C(=O)NCc3ccc(OC)cc3)CC2=O)cc1`, the “% Inhibition” value is recorded as -19% and the Z score is 2.01.

Regarding `CC(C)NC(=O)CNC(=O)c1ccc(Cl)s1`, the “% Inhibition” value is on record as -11% and the Z score worked out at 1.36.

For the molecule `O=C(CCCc1ccccn1)N1CCN([C@@H](CO)c2cccc(Cl)c2)CC1`, the “% Inhibition” value is on record as -10% and the Z score was found to be 1.81.

Regarding `CCCN(C[C@H]1CCOC1)C(=O)Nc1ccc(C)cc1Cl`, the “% Inhibition” value was determined as 2% and the Z score is given as -0.22.

Regarding `Cc1ccc2nc(C3CC3)cc(C(=O)N(C)CC3(CO)CC3)c2c1`, the “% Inhibition” value is listed as -6% and the Z score is 0.73.

In the case of `CCOC1CC(NC(=O)CCc2c(C)[nH]c(=O)c(C#N)c2C)C1(C)C` (stereo not drawn), the “% Inhibition” value was 3% and the Z score was -0.6.

For `CC1(C)NC(=O)N(CC(=O)Nc2cccc(N3C(=O)CNC3=O)c2)C1=O`, the “% Inhibition” value is recorded as 10% and the Z score was -1.33.
